# Results: PubChem BioAssay AID463173 (ICCB-Longwood Screening Facility, Harvard Medical School, 2010)
# The campaign covered roughly 52,000 compounds. About 1,700 (3.3%) were called active. Cut-off read from the data, not from the text of the source: active = survival mostly below about 52% (no sharp cut-off); inactive = mostly above about 56%. This is one part of the list.
# Test system: Wild type
# Assay: S. aureus survival, RN4220 and DeltatarO strains – OD600, teichoic acid synthesis inhibitors, primary screen (AID 463173)
# Settings: S. aureus RN4220 wild type/DeltatarO growth, OD600, 18 h, stronger effect = lower value, screened at 18.75 µg/mL (by protocol)
row,SMILES,survival
1,CC1CCN(S(=O)(=O)c2cn(CC(=O)Nc3cccc(C(F)(F)F)c3)c(=O)c3ccccc23)CC1,inactive: 65%
2,COC(=O)c1cc2oc3ccccc3c2n1Cc1nc(-c2ccc(OC)cc2)oc1C,inactive: 80%
3,CCn1c(C(=O)NCCc2ccc(OC)c(OC)c2)cc2sc(Cl)cc21,inactive: 63%
4,CCCCNc1nc(Oc2ccc(OCC)nn2)nc(N2CCOCC2)n1,inactive: 91%
5,COc1cccc(NC(=O)c2ccc3nc(CCc4ccccc4)oc3c2)c1,inactive: 94%
6,COc1ccc(Cl)cc1NC(=O)c1c(NCc2ccc(C)o2)sc2c1CCCCC2,inactive: 80%
7,CCC1CCCCN1C(=O)Cn1c(=O)n(CCCCCC(=O)NCc2ccccc2)c(=O)c2sccc21 (stereo not given),inactive: 75%
8,CSc1ncc(Cl)c(C(=O)Nc2ccc(NC(C)=O)cc2)n1,inactive: 83%
9,COc1cccc(CSc2nc3ccccc3c3nc(CCn4c(C)nc5ccccc54)nn23)c1,inactive: 85%
10,CCCn1c2ccccc2c2cnn(CC(=O)N(C)c3ccc(F)cc3)c(=O)c21,inactive: 159%
11,CCn1c(COc2cccc(C)c2)nnc1SCC(=O)NC(C)(C)C,inactive: 99%
12,Cc1ccc(-n2ncc(C(=O)NCc3ccccc3C)c2-n2cccc2)cc1,inactive: 88%
13,O=C(NCc1ccc2c(c1)CCN2C(=O)c1ccc(F)cc1)c1cc2ccccc2[nH]1,inactive: 99%
14,COc1ccc(-c2[nH]c3ccccc3c2SCCNC(=O)c2cc(OC)c(OC)c(OC)c2)cc1,inactive: 74%
15,COc1ccccc1CNC(=O)CCC(=O)N1CC2CCCN2c2ccccc21 (stereo not given),inactive: 80%
16,CCCCn1c(SCC(=O)N2CCCCC2)nc2ccccc2c1=O,inactive: 110%
17,Cc1cccc(C)c1OCCn1c(C2CC(=O)N(c3cccc(Cl)c3)C2)nc2ccccc21 (stereo not given),inactive: 84%
18,COc1cccc(NC(=O)C2CCCN(S(=O)(=O)c3c(C)nn(C)c3C)C2)c1 (stereo not given),inactive: 79%
19,O=C(Cc1ccc(Cl)cc1)Nc1ccc2nn(-c3ccc(Cl)cc3)nc2c1,inactive: 80%
20,c1ccc(CNc2nc3c(-c4ccccc4)nnn3c3ccccc23)cc1,inactive: 95%
21,COc1ccc(SCc2cc(=O)c3cc(Cl)ccc3[nH]2)cc1,inactive: 84%
22,Cc1ccc(CNC(=O)c2ccc(Cn3c(=O)c4ccccc4n(CC(=O)Nc4ccc(C)cc4C)c3=O)cc2)cc1,inactive: 85%
23,CCOc1ccc(OCC)c(NS(=O)(=O)c2cc(-c3cc(C)no3)ccc2C)c1,inactive: 90%
24,CC(C)N(C)NC(=S)Nc1ccccc1,inactive: 117%
25,CCc1ccccc1N1C(=O)N(Cc2ccc(C#N)cc2)c2ccccc2S1(=O)=O,inactive: 129%
